Results: PubChem BioAssay AID2101 (National Center for Advancing Translational Sciences (NCATS), 2009)
Hit rate of the full screen: of about 330,000 compounds, about 300 (0.091%) were called active. Inconclusive results, whose numbers are uncertain, are shown with a selection of clear calls. Calls come from the whole dose curve; as a rule, active = well fitted inhibition curve with a large enough effect; inconclusive = small, poorly fitted or top-dose-only effect, or effect the other way, or another doubt; inactive = no such curve, though single readings can be large or run the other way. Potencies of inconclusive entries are left out as doubtful fits.

Target: Lysosomal acid glucosylceramidase (Homo sapiens) (UniProt P04062)
Experiment: qHTS Assay for Inhibitors and Activators of N370S glucocerebrosidase as a Potential Chaperone Treatment of Gaucher Disease;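 for activity change, negative = inhibition: 0% = full enzyme activity and -100% = no enzyme basal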
Conditions: N370S GC spleen homogenate, 4MU-glucoside fluorescence; activity change, negative = inhibition: at 59.4 µM (top of the series) unless noted
Potency is the fitted concentration of half-maximal effect.

SMILES | Potency | activity change, negative = inhibition
COc1cc(O)ccc1C(=O)CCc1ccc(O)cc1 | inconclusive [inhibitor, partial curve] | –
COC(=O)NC(NS(=O)(=O)c1ccccc1)(C(=O)OC)C(F)(F)F (stereo unspecified) | inconclusive [activator, partial curve, poor fit] | –
Cc1ccc(Cl)c(NC(=O)COC(=O)c2ccccc2C(=O)c2ccc(Cl)c([N+](=O)[O-])c2)c1Cl | inconclusive [inhibitor, partial curve] | –
CCN(CC)CCCNc1nc(SC)nc2sc3c(c12)CCN(C)C3 | inconclusive [activator, partial curve] | –
CC(C)N(Cc1nc(-c2ccc(Cl)cc2)no1)C(=O)CCC1CCCC1 | inconclusive [activator, partial curve] | –
Cc1ccc(Nc2cc(C)nn2-c2nc(C)cc(C)n2)cc1 | inconclusive [activator, partial curve] | –
CSCC[C@@H]1NC(=O)C/C=C\[C@@H](C)COC(=O)[C@@H](C)COC1=O | – | inactive: 0.839% [at 12.8 µM]
CC1(C)C2CC=C(/C=N/NC(=S)NCCc3ccccc3)C1C2 (stereo unspecified) | inconclusive [activator, partial curve] | –
CCOC(=O)c1cc2c3ccccc3n(CC)c2nc1N | inconclusive [activator, single point] | –
C=CCNC(=O)c1c(N)n(-c2cccc(S(N)(=O)=O)c2)c2nc3ccccc3nc12 | inconclusive [activator, partial curve] | –
Cc1cc2c(=O)n(Cc3ccco3)c(SCC(=O)c3ccc(Cl)s3)nc2s1 | inconclusive [activator, single point] | –
Cn1c(=N)n(CC(=O)c2ccccc2)c2ccccc21 | – | inactive: -27.1%
CCN(Cc1nc(-c2cccc(C)c2)no1)C(=O)c1ccc2c(c1)OCO2 | inconclusive [activator, single point] | –
CCCn1nc(NC(=O)c2cccs2)c2cc3ccc(C)cc3nc21 | inconclusive [activator, partial curve, poor fit] | –
CN(C)CCNC(=O)c1ccccc1-c1ccccc1 | inconclusive [inhibitor, partial curve] | –
CC(C)NC[C@@H](O)COc1cccc2[nH]ccc12 | inactive | –
COc1ccccc1CNC(=O)c1cc(S(=O)(=O)N2CCCCC2)c[nH]1 | inconclusive [inhibitor, single point] | –
O=C(Nc1cccc(CNCCc2c[nH]c3ccccc23)c1)c1ccccc1Cl | inconclusive [inhibitor, partial curve] | –
CCn1ccnc1CN(C)Cc1cn(-c2ccc(C)cc2)nc1-c1cccc(C)c1 | inconclusive [inhibitor, single point] | –
O=C(CN1CCN(c2ccccn2)CC1)Nc1cc(F)ccc1F | inconclusive [inhibitor, single point] | –
C[C@H](NC(=O)c1nc[nH]c1C(=O)N1CCc2ccccc2C1)C(=O)OC(C)(C)C | inconclusive [activator, partial curve] | –
CCN(c1ccccc1)S(=O)(=O)c1ccc(NC(=O)c2nc(S(C)(=O)=O)ncc2Cl)cc1 | – | inactive: -2.47%

SMILES | Potency | activity change, negative = inhibition
CCOC(=O)c1cnc2ccc(OCC)cc2c1NCc1ccccc1OC | – | inactive: 6.1%
Cc1ccc(-c2ccc(C3C(C#N)=C(N)Oc4n[nH]c(C)c43)o2)cc1 (stereo unspecified) | inconclusive [inhibitor, full curve, poor fit] | –
CCC(=O)N(CCC(Cc1ccccc1)c1ccco1)Cc1ccco1 (stereo unspecified) | inconclusive [activator, partial curve, poor fit] | –
CCOc1ccc(C(=O)NCC(=O)OCCCOC(=O)CNC(=O)c2ccc(OCC)cc2)cc1 | inconclusive [activator, single point] | –
CC(=O)Nc1ccc(S(=O)(=O)Nc2nc3nc(-c4ccccc4)cc(-c4ccccc4)n3n2)cc1 | inconclusive [activator, partial curve] | –
CC1CC(C)(C)Nc2ccc(OC(=O)c3ccco3)cc21 (stereo unspecified) | – | inactive: -8.61%
O=C(O)CC(C(=O)O)N1C(=O)/C(=C/c2ccc(-c3nc4ccccc4s3)o2)SC1=S (stereo unspecified) | – | inactive: -5.98%
CCCC(=O)NC(c1ccccc1Cl)c1c(O)ccc2ccccc12 (stereo unspecified) | inconclusive [activator, partial curve] | –
Cc1cc(NC(=O)COC(=O)c2nccnc2N)n(-c2ccccc2)n1 | inconclusive [activator, partial curve] | –
COc1ccc2cc(-c3ccccc3)c(=O)oc2c1 | inconclusive [activator, partial curve] | –
c1ccc2c(NCC3CCCO3)nc(N3CCOCC3)nc2c1 (stereo unspecified) | inconclusive [activator, partial curve] | –
Cc1ccc(NC(=O)C2CCN(S(=O)(=O)c3ccc4c(c3)NC(=O)C(C)S4)CC2)cc1Cl (stereo unspecified) | inconclusive [inhibitor, partial curve] | –
O=c1cc(/C=C/c2c(F)cccc2Cl)[nH]c2ccccc12 | inconclusive [inhibitor, full curve, poor fit] | –
C[C@]1(C(=O)NCCN2CCOCC2)C=C[C@@H](Cc2ccccc2)N1C(=O)c1ccccc1 | inconclusive [inhibitor, single point] | –
Cc1ccc2c(c1)C(c1ccncc1)=NNC(c1ccccc1)=N2 | – | inactive: 8.94%
CN1CCN(c2oc(-c3ccccc3)nc2S(=O)(=O)c2ccc(Br)cc2)CC1 | inconclusive [inhibitor, single point] | –
Cc1cccc(N(C)S(=O)(=O)c2ccc3c(c2)NC(=O)CC(=O)N3)c1 | inconclusive [inhibitor, single point] | –
CC(C)(C)c1nc(N)nc(=O)[nH]1 | inconclusive [activator, single point] | –
CC(C)COc1ccc(C(=O)N(CC(=O)Nc2ccccc2C(F)(F)F)Cc2ccco2)cc1 | inconclusive [activator, partial curve] | –
CC(C)NC(=S)NC(c1ccccc1)(c1ccccc1)c1ccccc1 | inconclusive [activator, single point] | –
CN(C)/C=N/c1nc2nccc(-c3cccs3)n2n1 | inconclusive [activator, single point] | –
Cc1cccc(NC(=O)/C(C#N)=C/c2ccc(F)cc2)n1 | – | inactive: -14.5%

SMILES | Potency | activity change, negative = inhibition
O=C(CSCc1c(Cl)cccc1Cl)Nc1nccs1 | inconclusive [activator, partial curve, poor fit] | –
Nc1[nH]n2c(=O)c3c(nc2c1N=Nc1ccc(Cl)cc1)CCCC3 | – | inactive: 5.09%
CCc1cc2c(Nc3ccccc3O)nc(C)nc2s1 | – | inactive: -3.91%
CCOC(=O)Cn1c(S(=O)(=O)Cc2cccc(F)c2)nc(-c2ccccc2)c1-c1ccccc1 | – | inconclusive: 30.3% [activator]
Cc1ccc2nc(-c3ccc(SCC(=O)Nc4ccc5c(c4)OCCO5)nc3)[nH]c2c1 | – | inactive: 6.43%
O=C(NCCc1ccc(Cl)cc1)C1(c2ccccc2)CC1 | inconclusive [inhibitor, full curve, poor fit] | –
Cc1cc(C(F)F)n2ncc(C(=O)NC3CCCCCC3)c2n1 | inconclusive [activator, partial curve] | –
Nc1nc2nccc(-c3ccc(Cl)cc3)n2n1 | inconclusive [activator, single point] | –
c1ccc(C2Nc3ccccc3-c3nc4ccccc4n32)cc1 (stereo unspecified) | inconclusive [activator, partial curve] | –
Cc1ccc(C(=O)CC(=O)c2ccccc2)cc1 | – | inactive: -21.4%
Cc1ccc(-c2nnc(SCC(=O)Nc3nccs3)n2N)cc1 | inconclusive [activator, partial curve] | –
COc1ccc(CN(Cc2cccnc2)C(=S)NCCc2ccccc2)cc1OC | inconclusive [inhibitor, partial curve, poor fit] | –
Cc1cccc(N(CC(=O)NC2CC2)S(=O)(=O)c2ccc(Cl)cc2)c1 | – | inactive: -4.43%
COCCN(C(=O)CSc1nnc(C)n1-c1ccccc1)c1c(N)n(Cc2ccccc2)c(=O)[nH]c1=O | inconclusive [activator, partial curve] | –
O=C(c1cc(-c2cccs2)on1)N1CCN(c2ccccc2)CC1 | inconclusive [activator, single point] | –
O=C(O)COc1ccc(/C=C/C(=O)c2ccc(C3CCCCC3)cc2)cc1 | inconclusive [activator, single point] | –
Nc1nc(NCCCN2CCOCC2)nc(Nc2ccc(F)cc2)c1[N+](=O)[O-] | inconclusive [inhibitor, single point] | –
Oc1c(Br)cc(Br)cc1C=Nc1cccnc1 | inconclusive [activator, single point] | –
CCOC(=O)c1cc(-c2ccc(OC)cc2)nn1-c1ccccc1C(=O)O | – | inactive: -5.45%
CCOc1ccc(CN2C(=O)c3ccccc3Sc3ccc(C(=O)NCCCN4CCOCC4)cc32)cc1 | inconclusive [inhibitor, partial curve, poor fit] | –
CCN(Cc1ccccc1)S(=O)(=O)c1ccc(C(=O)N(CCCN(C)C)c2nc3cc4c(cc3s2)OCO4)cc1 | inconclusive [inhibitor, partial curve] | –
Cc1cc(C)cc(NC(=O)C(c2ccccc2)N2CCN(CC(=O)N3CCCC3)CC2)c1 (stereo unspecified) | – | inactive: -10.5%
